# Test results taken from PubChem BioAssay AID1347073 (National Center for Advancing Translational Sciences (NCATS), 2019).
# The campaign covered roughly 45,000 compounds. About 200 (0.44%) were called active. Another 7% or so got no clear call; they are omitted. Calls follow the shape of the dose curve; as a rule, active = well fitted activation curve with a large enough effect; inconclusive = small, poorly fitted or top-dose-only effect; inactive = no such curve, though single readings can be large or run the other way. The list shows a part of the results.
# Assay: qHTS of TDP-43 Inhibitors: NCGC Sytravon Library Screen; also: 0% is about no effect; nearly all actives have a fitted effect of over 55% in size
# Details: yeast TDP-43 toxicity rescue, BacTiter-Glo growth, 24 h; series mostly up to 46.1 µM; growth rescue (activation): at the top concentration
# In short: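 TDP-43-expressing yeast, pregrown in raffinose, seeded at OD600 0.02 in galactose medium with compound for 24 hr at 30 deg C. Growth read by BacTiter-Glo luminescence, so rescue of toxicity appears as activation.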
row,Compound,growth rescue (activation)
1,O=C(CSc1nnc(NC(=O)c2c(F)cccc2F)s1)NC1CC1,inactive: 15.2%
2,O=C(C[n+]1cc(-c2ccc(Br)cc2)n2c1CCCCC2)c1ccccc1,inactive: -2.73%
3,Brc1cccc(OCCCN2CCCCCC2)c1,inactive: -11.8%
4,Cn1nc(-c2ccc(C(=O)Nc3ccc(F)cc3)cc2)c2ccccc2c1=O,inactive: 23%
5,O=C(Nc1ccccn1)Nc1ccccc1[N+](=O)[O-],inactive: 0.14%
6,Cn1cc([C@@H]2C[C@H]3CN(C4CCCC4)C(=O)[C@]34CCCN24)c(-c2ccccc2)n1,inactive: -6.68%
7,COc1ccc2cc(C(=O)C3CCCN(Cc4ccccn4)C3)ccc2c1 (stereo not drawn),inactive: 10.5%
8,Cc1cc(S(=O)(=O)NC(C)C)ccc1OCC(=O)Nc1ccc2c(c1)OCCO2,inactive: 7.28%
9,CCOC(=O)C1=C(C)NC(C)=C(C(=O)OCC)C1C(=O)OCC(=O)NCc1ccccc1OC,inactive: 7.28%
10,O=C(Nc1ccc(NC(=O)C2CCCCC2)nc1)c1cccs1,inactive: -10.9%
11,CCCS(=O)(=O)NC(=O)C1(C)CCCN(C(=O)c2ccc(F)c(Cl)c2)C1 (stereo not drawn),inactive: 1.12%
12,O=C(CSc1n[nH]c(=O)[nH]c1=O)Nc1ccc(SC(F)F)cc1,inactive: 8.22%
13,CS(=O)(=O)N1CCc2cc(C(=O)Nc3ccccc3Cl)ccc21,inactive: 23.9%
14,Cc1ccc(S(=O)(=O)N(C)C)cc1NC(=O)C(C)N(C)CCOc1ccc(Cl)cc1 (stereo not drawn),inactive: 9.04%
15,C[C@H](NC(N)=O)C(=O)N1CCN(S(=O)(=O)c2ccc3ccccc3c2)CC1,inactive: 10.9%
16,CC(=O)c1ccc(S(=O)(=O)NCc2ccc(C(=O)N(C)CC(=O)Nc3cccc(F)c3)cc2)cc1,inactive: -3.01%
17,Cn1nccc1C(=O)N1CCCC(C(=O)c2cccc3ccccc23)C1 (stereo not drawn),inactive: -12%
18,CC(=O)N[C@H]1[C@H](OCc2ccccc2F)O[C@H](COC(C)=O)[C@@H](OC(C)=O)[C@@H]1OC(C)=O,inactive: 27.2%
19,CCc1nc2c(OCC(=O)N3CCOCC3)cccn2c1N(C)C(=O)COc1ccccc1,inactive: 5.17%
20,CCN(c1ccc(NS(=O)(=O)c2cc(Cl)ccc2Cl)cc1)C(C)C,inactive: 5.4%
21,O=C(CCC(=O)Nc1ccccc1Cl)NNC(=O)c1ccco1,inactive: 8.99%
22,O=C(NCc1ccco1)c1ccc(C(F)(F)F)cc1,inactive: 1.9%
23,O=C(N/N=C/CCc1ccccc1)c1ccc(CN2c3cccc4cccc(c34)S2(=O)=O)cc1,inactive: -4.14%
24,O=C(Nc1cccc(Cl)c1)c1cc([N+](=O)[O-])ccc1N1CCN(CCO)CC1,inactive: 3.22%
25,O=C(COc1ccc(Br)cc1)Nc1ccc(CN2CCOCC2)cc1,inactive: -2.12%
26,CCCn1c(SCC(=O)NCc2ccc(OC)cc2)n[nH]c1=O,inactive: 8.69%
27,CCN(CC)c1ccc2c(cc1=O)[C@@H](NC)CCc1cc(OC)c(OC)c(OC)c1-2,inactive: -16.9%
28,CCc1ccccc1Nc1nc2ccccc2n1CC,inactive: 7.78%
